Laboratory results taken from PubChem BioAssay AID1508623 (National Center for Advancing Translational Sciences (NCATS), 2021).
Hit rate of the full screen: of about 48,000 compounds, about 450 (0.94%) were called active. The inconclusive results got no clear call from the source; some entries with a clear call stand among them for comparison. Calls come from the whole dose curve; as a rule, active = well fitted inhibition curve with a large enough effect; inconclusive = small, poorly fitted or top-dose-only effect; inactive = no such curve, though single readings can be large or run the other way. Where the call is inconclusive, the potency comes from a doubtful curve fit.

Test: Primary qHTS for Identification of Small Molecule Inhibitors of Huntingtin Promoter Activity; note: nearly all actives have a fitted effect of over 50% in size
Conditions: HEK293 HTT promoter firefly luciferase reporter (activity 0% = vehicle and -100% = no light), 24 h; activity change, negative = inhibition: at 57.5 µM (top of the series)
Summary of the method: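 HEK293 luciferase promoter-reporter cells (2,500/well) plated 24 h, then compounds added at up to 57.5 uM final for 24 h at 37 °C. Firefly luminescence by Dual-Glo, normalized to vehicle (0%) and zero RLU (-100%).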
Potency is the fitted concentration of half-maximal effect; tags give direction and shape of the fitted curve.

| SMILES | Potency | activity change, negative = inhibition |
| --- | --- | --- |
| CCOc1ccc(CNC(=O)c2ccc(Sc3ccc(Cl)cc3)c(NC(C)=O)c2)cc1 | inconclusive: 35.5 µM [inhibitor, partial curve, poor fit] |  |
| CCCC(=O)Nc1ccc2c(c1)nc(CN1CCN(C(=O)OCC)CC1)n2C(C)C | inconclusive: 1 µM [inhibitor, full curve] |  |
| CCOc1ccc(NC(=O)CSc2oc(-c3ccco3)nc2S(=O)(=O)c2ccc(C)cc2)cc1 | inconclusive: 31.6 µM [inhibitor, partial curve, poor fit] |  |
| CCOc1ccc(S(=O)(=O)NCCc2csc(-c3ccc(Cl)cc3)n2)cc1 | inconclusive: 14.1 µM [inhibitor, partial curve, poor fit] |  |
| O=C(COc1ccccc1)Nc1sc2c(c1C(=O)Nc1ccccc1Cl)CCCCC2 |  | inactive: -19.2% [at 11.5 µM] |
| CC[C@H](CC[C@@H](C)[C@H]1CC[C@H]2[C@@H]3CC=C4C[C@@H](O)CC[C@]4(C)[C@@H]3CC[C@]12C)C(C)C |  | inactive: -22% |
| CC(=O)OCc1cc(=O)n2nc(C3CCCCC3)sc2n1 |  | inactive: 5.7% |
| O=C(Nc1ncc(-c2cc(C(F)F)nn2-c2c(Cl)cccc2Cl)s1)C1CC1 | inconclusive: 0.611 µM [inhibitor, full curve] |  |
| COc1ccc(C(=O)NCCn2cc(SCc3cccc(F)c3)c3ccccc32)cc1OC | active: 25.1 µM |  |
| CCc1ccc(NC(=O)CC(c2cc(OC)c(OC)c(OC)c2)N2Cc3ccccc3C2=O)cc1 (centres undefined) | inconclusive: 39.8 µM [inhibitor, single point] |  |
| COc1ccc(CNC(=O)c2cc3c(-c4ccc(Cl)cc4)nn(C)c3s2)cc1 | inconclusive: 35.5 µM [inhibitor, single point] |  |
| CCOc1ccc(-c2nnc(SCC(=O)Nc3ccc(C)cc3C)o2)cc1 | inconclusive: 31.6 µM [inhibitor, partial curve, poor fit] |  |
| CC1=C(c2ccc(C(C)C)cc2)S(=O)(=O)N=C1N1CCC(C(=O)Nc2ccc(C)cc2)CC1 |  | inactive: -26.8% |
| CCc1ccc(NC(=O)c2cnn(-c3c(C)cccc3C)c2C2CCN(C(=O)OC(C)(C)C)CC2)cc1 | inconclusive: 35.5 µM [inhibitor, partial curve, poor fit] |  |
| CCn1c(C(=O)NCc2ccccc2Cl)cc2sc(Cl)cc21 | inconclusive: 39.8 µM [inhibitor, single point] |  |
| CC(Oc1ccccc1)C(=O)Nc1ccc(C(=O)OCc2cc(=O)n3nc(C4CC4)sc3n2)cc1 (centres undefined) | inconclusive: 17.8 µM [inhibitor, partial curve, poor fit] |  |
| Cc1cc2[nH]c(=O)c(=O)[nH]c2cc1S(=O)(=O)N1CCN(c2ccccc2)CC1 |  | inactive: 7.76% |
| COc1ccc(-c2cc3ccc(O)c(CN4CCCC(C)C4)c3oc2=O)cc1OC (centres undefined) |  | inactive: 4.9% |
| Cc1nn(C)c(C)c1S(=O)(=O)N(CC(=O)Nc1ccc(F)cc1F)c1ccc(C(C)C)cc1 | inconclusive: 39.8 µM [inhibitor, single point] |  |
| COc1ccc(NC(=O)Cn2c(=O)n(-c3ccc(C)cc3)c(=O)c3c2c2cc(C)ccc2n3C)cc1 | inconclusive: 14.1 µM [inhibitor, partial curve] |  |

| SMILES | Potency | activity change, negative = inhibition |
| --- | --- | --- |
| Cc1ccc(CN2C(=O)SC(Nc3ccc(Cl)cc3)C2=O)cc1 (centres undefined) |  | inactive: -26.3% |
| CC1CCN(c2nc3ccc(C(=O)NC(C)C)cc3s2)CC1 |  | inactive: -83.1% |
| O=C(Nc1onc2c1CCCC2)c1ccccc1 |  | inactive: 7.48% |
| COc1cccc(CNC(=O)C(=O)NCC(c2ccco2)S(=O)(=O)c2ccccc2)c1 (centres undefined) | inconclusive: 31.6 µM [inhibitor, single point] |  |
| O=C(Cn1nc(Cc2cccnc2)c2ccccc2c1=O)Nc1ccc(F)c(Cl)c1 | inconclusive: 28.2 µM [inhibitor, single point] |  |
| COc1ccc(-c2noc(CSc3nc4ccc(C)cc4[nH]3)n2)cc1 | active: 28.2 µM |  |
| COc1cccc(CNC(=O)c2sc3ncccc3c2-n2c(C)ccc2C)c1OC | inconclusive: 20 µM [inhibitor, partial curve] |  |
| O=C(Cn1cnc2onc(-c3ccc(F)cc3)c2c1=O)N1CCN(c2ccc(F)cc2)CC1 | inconclusive: 28.2 µM [inhibitor, single point] |  |
| CCOC(=O)c1ccc(N2C(=O)c3[nH]nc(-c4ccc(OC)cc4)c3C2c2cccc(O)c2)cc1 (centres undefined) | inconclusive: 35.5 µM [inhibitor, single point] |  |
| COc1ccccc1NC(=O)Cn1nnc(C(=O)NCc2cccs2)c1N | inconclusive: 2.24 µM [inhibitor, full curve] |  |
| O=c1cc(COc2ccccc2Cl)nc2scc(-c3ccccc3)n12 |  | inactive: -7.54% |
| COc1ccc(NC(=O)CCS(=O)(=O)c2nc(-c3ccc4c(c3)OCO4)cc(C(F)(F)F)n2)cc1OC | inconclusive: 39.8 µM [inhibitor, single point] |  |
| O=C(Nc1cccc(C(=O)OCc2cc(=O)n3c4c(sc3n2)CCCC4)c1)c1cccc(F)c1 | inconclusive: 7.08 µM [inhibitor, single point] |  |
| COc1cc(C(=O)NCc2ccc3c(c2)CCN3C(=O)c2ccc(Cl)cc2)cc(OC)c1OC | inconclusive: 39.8 µM [inhibitor, single point] |  |
| O=C(Nc1ccccc1Cl)N1CCC2(CC1)Oc1ccccc1C(=O)N2Cc1ccc(F)cc1 | inconclusive: 39.8 µM [inhibitor, single point] |  |
| CCc1ccc(NC(=O)c2cnc3c(-c4ccccc4)c(C)nn3c2C)cc1 | inconclusive: 39.8 µM [inhibitor, single point] |  |
| CC(=O)c1ccc(NC(=O)c2ccc(-c3nc(CSc4ccc(C)cc4)c(C)o3)cc2)cc1 | inconclusive: 8.91 µM [inhibitor, partial curve] |  |
| CC1(O)CC(c2nc(-c3ccc4ccc(-c5ccccc5)nc4c3)c3c(N)nccn23)C1 (centres undefined) | inconclusive: 21.7 µM [inhibitor, partial curve] |  |
| Cc1cc(C(=O)N2CCN(c3ccccc3F)CC2)c2c(C)nn(-c3ccccc3)c2n1 | inconclusive: 28.2 µM [inhibitor, partial curve] |  |
